Data on one molecule can be found in patent US20040014158A1 (published 2004).

The experiment addresses T1, C-Biotag-BS-LuSy (lumazine synthase of Bacillus subtilis with a C-terminal 13-residue peptide biotinylated in … (Bacillus subtilis, UniProt P11998 1-154, biotin covalently bound to the lysine of the peptide … (biotinylated in vivo))).
T1 construct: mature; no protein entry; SDS-denatured 18.5 kDa monomer in the blots; also called C-Bio-BS-LuSy; lumazine synthase fusion protein with Bio-Peptide
T1 sequence: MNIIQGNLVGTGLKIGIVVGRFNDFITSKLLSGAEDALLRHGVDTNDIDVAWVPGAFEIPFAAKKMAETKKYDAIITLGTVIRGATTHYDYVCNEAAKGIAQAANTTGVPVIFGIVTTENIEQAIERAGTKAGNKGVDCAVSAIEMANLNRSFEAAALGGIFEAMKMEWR
The experiment can be described thus: sandwich ELISA: avidin coated, refolded fusion protein in log 2 dilution, streptavidin-AP detection, 405 nm. Background: An ELISA detects its analyte on a solid surface through an enzyme-linked reagent.

B1: avidin (Sigma) (other, UniProt P02701 25-152, looked up)
chain: ARKCSLTGKWTNDLGSNMTIGAVNSRGEFTGTYITAVTATSNEIKESPLHGTQNTINKRTQPTFGFTVNWKFSESTTVFTGQCFIDRNGKEVLKTMWLLRSSVNDIGDDWKATRVGINIFTRLRTQKE
notes: Coated on microtiter wells; also called avidin stock solution; avidin coated microtiter plate
With B1, the binding result is “binds”.
